{"source": "patent US20230277505A1", "about": "(Arena Pharmaceuticals, Inc., priority 2003, published 2023)", "key": {"5-HT2A": {"molecular_target": "5-HT2A (Homo sapiens, UniProt P28223)", "sequence (P28223 whole entry, looked up)": "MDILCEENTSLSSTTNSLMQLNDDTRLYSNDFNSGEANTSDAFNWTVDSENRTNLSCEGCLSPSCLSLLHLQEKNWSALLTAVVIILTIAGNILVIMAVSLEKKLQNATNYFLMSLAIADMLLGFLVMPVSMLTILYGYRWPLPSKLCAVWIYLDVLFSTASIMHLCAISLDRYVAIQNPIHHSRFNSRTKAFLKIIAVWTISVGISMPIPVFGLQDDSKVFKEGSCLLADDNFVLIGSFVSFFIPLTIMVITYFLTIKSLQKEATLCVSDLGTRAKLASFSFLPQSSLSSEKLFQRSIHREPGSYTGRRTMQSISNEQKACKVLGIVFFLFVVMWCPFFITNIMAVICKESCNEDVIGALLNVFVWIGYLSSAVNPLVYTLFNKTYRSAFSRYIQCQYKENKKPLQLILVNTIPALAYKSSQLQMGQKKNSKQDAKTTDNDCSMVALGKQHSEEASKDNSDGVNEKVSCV", "experiment": "IP3 Accumulation Assay", "type": "cell-based", "details": "averages of at least two trials", "method": "For the IP3 accumulation assay, a transfection protocol different from the protocol set forth in Example 3 was utilized. In the following example, the protocols used for days 1-3 were slightly different for the data generated for FIGS. 12 and 14 and for FIGS. 13 and 15; the protocol for day 4 was the same for all conditions.\nOn day one, COS-7 cells or 293 cells were plated onto 24 well plates, usually 1×10^5 cells/well or 2×10^5 cells/well, respectively. On day two, the cells were transfected by first mixing 0.25 ug DNA (see Example 3) in 50 μl serum-free DMEM/well and then 2 μl lipofectamine in 50 μl serum-free DMEM/well. The solutions (“transfection media”) were gently mixed and incubated for 15-30 minutes at room temperature. The cells were washed with 0.5 ml PBS and then 400 μl of serum free media was mixed with the transfection media and added to the cells. The cells were then incubated for 3-4 hours at 37° C./5% CO2. Then the transfection media was removed and replaced with 1 ml/well of regular growth media. On day 3, the media was removed and the cells were washed with 5 ml PBS followed by aspiration. Then 2 ml of trypsin (0.05%) is added per plate. After 20-30 seconds, warm 293 media is added to plates, cells are gently resuspended, and cells are counted. Then a total of 55,000 cells are added to sterile poly-D-lysine treated 96 well microtiter plates and cells are allowed to attach over a six-hour incubation in an incubator. Then media is aspirated and 0.1 mL inositol-free/serum-free media (GIBCO BRL) was added to each well with 0.25 μCi of ^3H-myo-inositol/well and the cells were incubated for 16-18 hours overnight at 37° C./5% CO2. Protocol A.\nOn day one, 13×10^6 293 cells per 150 mm plate were plated out. On day two, 2 ml of serum OptimemI (Invitrogen Corporation) is added per plate followed by addition of 60 μL of lipofectamine and 16 μg of cDNA. Note that lipofectamine must be added to the OptimemI and mixed well before addition of cDNA. While complexes between lipofectamine and the cDNA are forming, media is carefully aspirated and cells are gently rinsed with 5 ml of OptimemI media followed by careful aspiration. Then 12 ml of OptimemI is added to each plate and 2 ml of transfection solution is added followed by a 5 hour incubation at 37° C. in a 5% CO2 incubator. Plates are then carefully aspirated and 25 mL of Complete Media are added to each plate and cells are then incubated until used. On day 3, cells are trypsinized with 2 ml of 0.05% trypsin for 20-30 seconds followed by addition of 10 mL of warmed media, gently triturated to dissociate cells, and then 13 additional ml of warmed media is gently added. Cells are then counted and then 55,000 cells are added to 96-well sterile poly-D-lysine trated plates. Cells are allowed to attach over a six hour incubation at 37° C. in a 5% CO2 incubator. Media is then carefully aspirated and 100 μL of warm inositol-free media plus 0.5 μCi ^3H-inositol is added to each well and the plates are incubated for 18-20 hours at 37° C. in a 5% CO2 incubator.\nOn day 4, media is carefully aspirated and then 0.1 ml of assay medium is added containing inositol-free/serum free media, 10 μM pargyline, 10 mM lithium chloride, and test compound at indicated concentrations. The plates were then incubated for three hours at 37° C. and then wells are carefully aspirated. Then 200 μL of ice-cold 0.1 M formic acid is added to each well. Plates can then be frozen at this point at −80° C. until further processed. […]"}, "male Wistar rats": {"system": "male Wistar rats", "experiment": "Effect on delta power, sleep and wakefulness in rats (EEG/EMG)", "type": "in vivo, rat", "details": "oral gavage, Compound 1 1.0 mg/kg, Compound 26 1.4 mg/kg", "method": "In this example, the effect of Compounds of the Invention, such as Compound 1 and Compound 26, on sleep and wakefulness was compared to the reference drug zolpidem. Drugs were administered during the middle of the light period (inactivity period).\nBriefly, four compounds of the invention, including Compound 1 (1.0 mg/kg) and Compound 26 (1.4 mg/kg), were tested for their effects on sleep parameters and were compared to zolpidem (5.0 mg/kg, Sigma, St. Louis, Mo.) and vehicle control (80% Tween 80, Sigma, St. Louis, Mo.). A repeated measures design was employed in which each rat was to receive seven separate dosings via oral gavage. […] Following each dosing, animals were continuously recorded until lights out the following day (˜30 hours).\nAnimals were housed in a temperature controlled recording room under a 12/12 light/dark cycle (lights on at 7:00 am) and had food and water available ad libitum. Room temperature (24+2° C.), humidity (50+20% relative humidity) and lighting conditions were monitored continuously via computer. […]\nEEG and EMG data were scored visually in 10 second epochs for waking (W), REMS, NREMS. Scored data were analyzed and expressed as time spent in each state per half hour. Sleep bout length and number of bouts for each state were calculated in hourly bins. […]"}, "[1]": {"system": "DOI-induced hypolocomotion in rats", "experiment": "Attenuation of DOI-induced hypolocomotion in rats", "type": "in vivo, rat", "details": "50 μmol/kg p.o. 60 min before DOI 0.3 mg/kg s.c.", "method": "In this example, compounds of the invention, such as Compound 1 and Compound 26, were tested for inverse agonist activity by determining whether these compounds could attenuate DOI-induced hypolocomotion in rats in a novel environment. DOI is a potent 5HT2A/2C receptor agonist that crosses the blood-brain barrier.\nMale Sprague-Dawley rats (Harlan, San Diego, Calif.) weighing between 200-300 g were used for all tests. Rats were housed three to four per cage. These rats were naïve to experimental testing and drug treatment. Rats were handled one to three days before testing to acclimate them to experimental manipulation. Rats were fasted overnight prior to testing.\n(R)-DOI HCl (C11H16INO2·HCl) was obtained from Sigma-Aldrich, and was dissolved in 0.9% saline. Compounds of the invention were synthesized at Arena Pharmaceuticals Inc. and were dissolved in 100% PEG400. […]\nThe “Motor Monitor” (Hamilton-Kinder, Poway, Calif.) was used for all activity measurement. This apparatus recorded rears using infrared photobeams. […]\nIn determining the effects of compounds of the invention on DOI-induced hypoactivity, animals were first injected with vehicle or the compound of the invention (50 μmol/kg) in their home cages. […] 10 min after DOI administration, animals were placed into the activity apparatus and rearing activity was measured for 10 minutes.\nResults (total rears over 10 minutes) were analyzed by t-test. […]"}, "dopamine D2 receptor": {"molecular_target": "dopamine D2 receptor (Rattus norvegicus (Rat), UniProt P61169)", "sequence (P61169 whole entry, looked up)": "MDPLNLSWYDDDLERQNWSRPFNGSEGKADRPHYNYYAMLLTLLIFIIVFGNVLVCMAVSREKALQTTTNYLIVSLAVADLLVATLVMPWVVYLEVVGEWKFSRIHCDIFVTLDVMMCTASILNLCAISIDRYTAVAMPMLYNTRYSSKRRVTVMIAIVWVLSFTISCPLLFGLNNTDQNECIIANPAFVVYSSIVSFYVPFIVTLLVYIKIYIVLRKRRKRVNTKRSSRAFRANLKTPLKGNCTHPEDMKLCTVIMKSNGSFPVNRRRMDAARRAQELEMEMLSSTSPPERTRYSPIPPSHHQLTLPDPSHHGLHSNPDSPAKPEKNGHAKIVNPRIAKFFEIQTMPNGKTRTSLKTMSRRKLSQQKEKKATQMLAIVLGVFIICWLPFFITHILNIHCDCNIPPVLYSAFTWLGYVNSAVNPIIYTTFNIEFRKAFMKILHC", "experiment": "125I-LSD displacement from brain sections (autoradiography), caudate", "type": "binding, Sprague-Dawley rats", "details": "1 micromolar compound, 1 nanomolar 125I-LSD"}, "5HT2A receptor": {"molecular_target": "5HT2A receptor (Rattus norvegicus (Rat), UniProt P14842)", "sequence (P14842 whole entry)": "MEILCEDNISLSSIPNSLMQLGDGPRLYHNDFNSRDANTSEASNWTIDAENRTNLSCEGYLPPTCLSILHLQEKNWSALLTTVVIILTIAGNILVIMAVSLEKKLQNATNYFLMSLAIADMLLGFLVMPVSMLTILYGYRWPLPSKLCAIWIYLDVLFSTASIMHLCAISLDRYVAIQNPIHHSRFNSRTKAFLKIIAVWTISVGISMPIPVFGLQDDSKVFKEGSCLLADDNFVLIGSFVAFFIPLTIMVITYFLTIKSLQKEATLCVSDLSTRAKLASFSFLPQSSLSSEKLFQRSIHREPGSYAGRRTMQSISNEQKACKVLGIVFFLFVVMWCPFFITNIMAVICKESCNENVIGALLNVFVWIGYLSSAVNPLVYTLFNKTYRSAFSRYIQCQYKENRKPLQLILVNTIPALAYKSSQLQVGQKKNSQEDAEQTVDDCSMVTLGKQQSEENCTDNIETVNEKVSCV", "experiment": "125I-LSD displacement from brain sections (autoradiography), cortex", "type": "binding, Sprague-Dawley rats", "details": "1 micromolar compound, 1 nanomolar 125I-LSD"}, "[2]": {"molecular_target": "endogenous human 5-HT2C receptor (Homo sapiens (Human), UniProt P28335)"}}, "data": [{"smiles": "COc1ccc(NC(=O)Nc2cccc(Cl)c2)cc1-c1c(Br)cnn1C", "note": "[Compound 20, 1-[3-(4-Bromo-2-methyl-2H-pyrazol-3-yl)-4-methoxy-phenyl]-3-(3Chloro-phenyl)-urea]", "values": [{"measurement": "IC50", "setting": "5-HT2A", "value": 0.45, "unit": "nM"}]}, {"smiles": "COc1ccc(NC(=O)Nc2ccc(Cl)cc2)cc1-c1c(Cl)cnn1C", "note": "[Compound 26, 1-[3-(4-Chloro-2-methyl-2H-pyrazol-3-yl)-4-methoxy-phenyl]-3-(4-Chloro-phenyl)-urea]", "values": [{"measurement": "REMS bout length", "setting": "male Wistar rats; fourth hour", "value": "significantly increased"}, {"measurement": "delta power during NREMS", "setting": "male Wistar rats; second hour following dosing (15:00), vs vehicle", "value": "significantly increased"}, {"measurement": "DOI-induced hypolocomotion (total rears over 10 minutes)", "setting": "[1]", "value": "attenuated DOI-induced hypolocomotion"}]}, {"smiles": "CC(C)Oc1ccc(NC(=O)Nc2ccc(F)cc2)cc1-c1c(Br)cnn1C", "note": "[Compound 60, 1-[3-(4-Bromo-2-methyl-2H-pyrazol-3-yl)-4-isopropoxy-phenyl]-3-(4-fluoro-phenyl)-urea]", "values": [{"measurement": "IC50", "setting": "5-HT2A", "value": 1.1, "unit": "nM"}]}, {"smiles": "Cn1ncc(Br)c1-c1cc(NC(=O)Nc2ccc(Cl)cc2)ccc1OCc1ccccc1", "note": "[Compound 61, 1-[4-Benzyloxy-3-(4-bromo-2-methyl-2H-pyrazol-3-yl)-phenyl]-3-(4-Chloro-phenyl)-urea]", "values": [{"measurement": "IC50", "setting": "5-HT2A", "value": 8.57, "unit": "nM"}]}, {"smiles": "COc1ccc(NC(=O)Nc2ccc(Cl)cc2C(F)(F)F)cc1-c1c(Cl)cnn1C", "note": "[Compound 79, 1-[3-(4-Chloro-2-methyl-2H-pyrazol-3-yl)-4-methoxy-phenyl]-3-(4-chloro-2-trifluoromethyl-phenyl)-urea]", "values": [{"measurement": "IC50", "setting": "5-HT2A", "value": 13, "unit": "nM"}]}, {"smiles": "COc1ccc(NC(=O)Nc2ccc(Cl)c(C(F)(F)F)c2)cc1-c1c(F)cnn1C", "note": "[Compound 84, 1-(4-Chloro-3-trifluoromethyl-phenyl)-3-[3-(4-fluoro-2-methyl-2H-pyrazol-3-yl)-4-methoxy-phenyl]-urea]", "values": [{"measurement": "IC50", "setting": "5-HT2A", "value": 12.2, "unit": "nM"}]}, {"smiles": "COc1ccc(OC(=O)Nc2cccc(-c3c(Br)cnn3C)c2)cc1", "note": "[Compound S-1610, [3-(4-Bromo-2-methyl-2H-pyrazol-3-yl)-phenyl]-carbamic acid 4-methoxy-phenyl ester]", "values": [{"measurement": "displacement of 125I-LSD from the caudate (dopamine D2)", "setting": "dopamine D2 receptor", "value": "not the caudate"}, {"measurement": "displacement of 125I-LSD from the cortex (5HT2A)", "setting": "5HT2A receptor", "value": "appears to selectively displace"}]}, {"smiles": "CN1CCN2c3ccccc3Cc3ccccc3C2C1", "note": "(centres unmarked) [mianserin]", "values": [{"measurement": "inhibition of serotonin-stimulated [35S]GTPγS binding", "setting": "[2]; 30 μM", "value": "completely inhibited"}, {"measurement": "basal constitutive binding of [35S]GTPγS", "setting": "[2]; membranes expressing the endogenous human 5-HT2C receptor", "value": "partial inverse agonist"}]}, {"smiles": "O=C(CCCN1CCC2(CC1)C(=O)NCN2c1ccccc1)c1ccc(F)cc1", "note": "[spiperone, reference compound]", "values": [{"measurement": "displacement of 125I-LSD from the caudate (dopamine D2)", "setting": "dopamine D2 receptor", "value": "displaces"}, {"measurement": "displacement of 125I-LSD from the cortex (5HT2A)", "setting": "5HT2A receptor", "value": "displaces"}]}]}
